Laboratory results published in article PMC7819943, “Rice protein-binding microarrays: a tool to detect cis-acting elements near promoter regions in rice”.
This is one part of the list.

biological target: T1, OsWOX13 (Oryza sativa, UniProt Q5QMM3 1-267); assay: protein-binding microarray (RPBM); PBS, 2% BSA, 51.3 ng/ul salmon testes DNA, 50 uM zinc acetate, 200 nM TF, 25 C, 1 h; high values mean tight binding; conditions: protein: recombinant; tags: N-terminal polyhistidine and DsRed monomer fusion (pET32a); label: CyDye5-dUTP incorporated in the synthesized complementary strand; 3' TTTTT single-stranded linker to array surface; dsDNA, one strand shown
T1 sequence: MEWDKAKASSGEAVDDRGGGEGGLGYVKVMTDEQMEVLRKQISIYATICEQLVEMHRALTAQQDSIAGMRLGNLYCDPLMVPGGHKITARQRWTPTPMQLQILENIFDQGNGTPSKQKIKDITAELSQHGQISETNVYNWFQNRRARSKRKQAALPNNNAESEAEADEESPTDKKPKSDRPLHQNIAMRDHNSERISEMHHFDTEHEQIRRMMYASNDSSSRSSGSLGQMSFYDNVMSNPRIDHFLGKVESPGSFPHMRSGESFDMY
Summary of the method: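 Binding signal here means per-feature fluorescence intensity in arbitrary units. The values were read on an Axon 4000B scanner after a custom Agilent array, double-stranded by primer extension with Cy5-dUTP, was incubated with 200 nM protein at 25 °C for 1 h in PBS with 2% BSA, salmon testes DNA and 50 µM zinc acetate, then washed. The proteins were transcription factors with an N-terminal polyhistidine tag and DsRed, expressed in E. coli BL21-CodonPlus and purified on Ni–NTA.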

Sequence | binding signal
TAAAGTTGAAAGTTTGATTGAAATTGAAATGATGTAACGGCGGAGTCACCTAGTGCAG | 33600 fluorescence intensity (a.u.)
CATGAAAATTAATTTAGATAGAAGGTTATGATTACAATATCGGAGTCACCTAGTGCAG | 13800 fluorescence intensity (a.u.)
TTCCTTGTCTCCTCAATCTTCTCTTTTGATGAATACGAGCCGGAGTCACCTAGTGCAG | 3880 fluorescence intensity (a.u.)
GATGAGAGATTGAGAGGAGGAATTCAATGTGGGCTTCTCCCGGAGTCACCTAGTGCAG | 6460 fluorescence intensity (a.u.)
CCTGCAGATCCTGATTGGAATTTGGACCTTCTCCTCCTCCCGGAGTCACCTAGTGCAG | 27100 fluorescence intensity (a.u.)
GTAGTTGATAATAATGTATTAATTAATGGTCAAAGTAAAGCGGAGTCACCTAGTGCAG | 15500 fluorescence intensity (a.u.)
GTGATGAGTGATGACCCGGAGAATGAGAGAGGCGACTGTGCGGAGTCACCTAGTGCAG | 3800 fluorescence intensity (a.u.)
AGCTAATTAACACCCTTTTAAGTGTTCATAAACAAATACACGGAGTCACCTAGTGCAG | 15100 fluorescence intensity (a.u.)
AGACGCATCTCCTCAATCATGCATCAACGTGCGTCATCTGCGGAGTCACCTAGTGCAG | 3790 fluorescence intensity (a.u.)
ATTAAATAAAATAAATCACCGCATCATTGCTTTTCTTTCCCGGAGTCACCTAGTGCAG | 3740 fluorescence intensity (a.u.)
GTTTGATTTCTAGTAGTGGGTGTTTATGTTGTAGCTTGTACGGAGTCACCTAGTGCAG | 14500 fluorescence intensity (a.u.)
GCTTAATCACATTGTTGCGCCCCTTCTTATCCTCTTCTTGCGGAGTCACCTAGTGCAG | 4600 fluorescence intensity (a.u.)
TAAAATTTGACAGATATAATTACAGTACAATCGTAGTGTACGGAGTCACCTAGTGCAG | 43500 fluorescence intensity (a.u.)
AGCTTGATGGGGAGGCTTCTCGATGGCGGCCGTCGCCCGTCGGAGTCACCTAGTGCAG | 4520 fluorescence intensity (a.u.)
CTATATAATTAAGGTAGGTAGATAGAGGAGAGGGTGGGCGCGGAGTCACCTAGTGCAG | 4680 fluorescence intensity (a.u.)
ACCGTACTTTCAATCACTGGAGAATGAGGAATTTAATTCACGGAGTCACCTAGTGCAG | 3540 fluorescence intensity (a.u.)
AAGCCTAATTAATCCGTCATTAGCAACTGTTTACTCTAGCCGGAGTCACCTAGTGCAG | 27900 fluorescence intensity (a.u.)
AATTAATTAGTCTCAATAGATTCGTCTCGCGAATTAGTCTCGGAGTCACCTAGTGCAG | 29300 fluorescence intensity (a.u.)
AATCTATATTGTAAATTAATGGTACTCTACAAATTGTACTCGGAGTCACCTAGTGCAG | 4180 fluorescence intensity (a.u.)
CAATGCTTGCTTGATTGGGAGCGCGTCGTCGAGGGCGTCGCGGAGTCACCTAGTGCAG | 14400 fluorescence intensity (a.u.)
ATAGGGAAATTGGAAAGGGATTGAGCGTGAGGCGGATCCACGGAGTCACCTAGTGCAG | 4440 fluorescence intensity (a.u.)

Sequence | binding signal
CGAACTTTTGTCAATTAATGCCAATATTAGCACACGTGGTCGGAGTCACCTAGTGCAG | 13600 fluorescence intensity (a.u.)
AGTAATAACATTTTCAATCCAAGACAAATTTATTATGAAACGGAGTCACCTAGTGCAG | 3680 fluorescence intensity (a.u.)
AATCCAATCACCCAATCCATTCGTCGCCGCCGCCGCCGCCCGGAGTCACCTAGTGCAG | 22000 fluorescence intensity (a.u.)
ATGACTTGACGAGGTAAATAAAATTGGACCGGGCAGCAAACGGAGTCACCTAGTGCAG | 3900 fluorescence intensity (a.u.)
TTGAAGTTATCATAATTTGAAATTCAAATTCAAATTGTGCCGGAGTCACCTAGTGCAG | 4770 fluorescence intensity (a.u.)
ATGAAAATTTGATGACATCAATTATTAAAATTTGTATTCACGGAGTCACCTAGTGCAG | 26400 fluorescence intensity (a.u.)
ATGAGATGACTGATTTGCATGTGTTTAGGCACTGTAGTCACGGAGTCACCTAGTGCAG | 30100 fluorescence intensity (a.u.)
TGTACGGTCTACCTAATTAATTTGTAGCACAAGAAAACTGCGGAGTCACCTAGTGCAG | 8070 fluorescence intensity (a.u.)
CGTAATGAAATAAATTTAGTGCTATACGTATTGTTATATACGGAGTCACCTAGTGCAG | 13800 fluorescence intensity (a.u.)
ACTAATTAAGAATTGTACTTCAGTTTTCTATAATATTGTCCGGAGTCACCTAGTGCAG | 21600 fluorescence intensity (a.u.)
AATGATTTTGATTCGGAAGAAACAAACGAAATGACATTTTCGGAGTCACCTAGTGCAG | 6950 fluorescence intensity (a.u.)
ATGACGATGATGGACTTGCTCGTCGTCTCGATGAAGAGCTCGGAGTCACCTAGTGCAG | 4400 fluorescence intensity (a.u.)
TTTTGCACGTAATTGGCATGCCAGCTTGTATAAACCATATCGGAGTCACCTAGTGCAG | 7600 fluorescence intensity (a.u.)
ACAAATTATTGGGCCTCCATGCCTCTTAGCCCTCGACGTCCGGAGTCACCTAGTGCAG | 6370 fluorescence intensity (a.u.)
GGTAACTGGGAGGAAATTCCTCATTTACTTCGCCGAAACACGGAGTCACCTAGTGCAG | 5820 fluorescence intensity (a.u.)
GATGGATGGTCTGCCTAATTTCAATTTGTCTCCCAAACTACGGAGTCACCTAGTGCAG | 3270 fluorescence intensity (a.u.)
GGCAAACATATACTCCCAATCAAACACAAGCCATCAGGCCCGGAGTCACCTAGTGCAG | 5730 fluorescence intensity (a.u.)
CGCGCGTGTGATTGGCTGGCTTGGTCAGGGTCAACGTTGGCGGAGTCACCTAGTGCAG | 48900 fluorescence intensity (a.u.)
CAAAGAGGCTAATTGAAGGATTGGAACATGACCTGGAAAACGGAGTCACCTAGTGCAG | 16000 fluorescence intensity (a.u.)
TATGAATAATATCCTAATCATTGGGTTAGGAATAGCCTTACGGAGTCACCTAGTGCAG | 3490 fluorescence intensity (a.u.)
GATTAATTAGGCTTAATAAATTCGTCTCGAAGTTTACAGGCGGAGTCACCTAGTGCAG | 45200 fluorescence intensity (a.u.)
